# Source: the supplement of paper PMC10338343
# ± gives the standard deviation. Only a part is listed here, and it is no random draw.
# System: MIWI (PIWIL1) piRISC loaded with piRNA #1 (30 nt)
# Experiment: pre-steady-state target cleavage rate (min^-1); MIWI and MILI are mouse PIWI proteins and EfPiwi is from a freshwater sponge; tags in brackets are library labels; higher = faster piRNA-guided slicing of the target
# Conditions: guide: piRNA #1 5'p-UGAGGUAGUAGGUUGUAUAGUAUCCAGAGG; auxiliary factor: 500 nM mouse GTSF1
# Outline: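 The pre-steady-state cleavage rate was calculated from a burst-and-steady-state fit. Data came from Cleave-'n-Seq, in which […] transcribed, DNA-blocked target RNA library was mixed with 1 nM active affinity-purified piRISC carrying one synthetic guide, with or without 500 nM GTSF1 partner protein, in HEPES–potassium acetate buffer at 33 °C for 0–8 or 0–960 min. Uncleaved targets were sequenced and normalised to depth and to weakly complementary targets, three trials were pooled, and k3 was capped at 0.0001 min^-1.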
# 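Further: 1 nM active piRISC with 0.1 nM target library at 33 °C single turnover.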
row,Sequence,pre-steady-state target cleavage rate
1,GGAGACCAUACUAUACAACCUCCUACCUCA,0.917 ± 0.045
2,GGUCUGGAUACAUAUACAACCUACUACCUCA,1.73 ± 0.1
3,GGAGAGGAUACUAUACAAGCUACUACCUCA,0.454 ± 0.032
4,GGAGUGGAUAACUAUACAACCUACUACCUCA,1.12 ± 0.081
5,GCUCUGGAUACUAUAGAAGCUACUACCUCA,0.341 ± 0.033
6,GCUGUGGAUACUAUACAACCUACUACGUCA,0.534 ± 0.064
7,GGAGACCUAUCUAUGCAACCUACUACCUCA,0.706 ± 0.071
8,CCUCUGGAUACUAUACAACGUACUACCUGA,0.26 ± 0.041
9,GGUCUGGAUACUAUACAAGCUACUACCACA,1.42 ± 0.065
10,GCACUGGAUACUAUAGAACCUACUACCUCA,1.1 ± 0.051
11,GGAGUGGAUACUAGACAACCUACUACCUCA,1.61 ± 0.086
12,GGAGACCUAUGAUAUGUUCCUAGUACGUCA,< 0.0001
13,GGAGACCAUACUAUACAACGUACUACCUCA,0.647 ± 0.043
14,GGAGACCUAACUUUACAACCUACUUCCUCA,0.00752 ± 0.0055
15,GGAGACCUUACAAUACAACCUACUACCACA,0.196 ± 0.035
16,GGAGACCAUAGAUUACAACCUACUACCUCA,0.0808 ± 0.026
17,GGAGUCGAUACUAUACAACCUACUACGUCA,0.911 ± 0.074
18,GGAGACCUAUGAAUAGAACCUACUACGUCA,< 0.0001
19,GCUGUGGAUACAAUACAACCUACUACCUCA,1.67 ± 0.12
20,GGAGACCUAUCUAUACAACCUAGUACCUGA,0.00392 ± 0.0028

row,Sequence,pre-steady-state target cleavage rate
1,CCUCUCGAUUCUAUACAACCUACUACCUCA,2.25 ± 0.15
2,GGAGACCUAACUAUACAACCUACUACUCA,0.334 ± 0.042
3,GGAGAGGAUACUAUACAAGCAACUACCUCA,0.0316 ± 0.0065
4,GGUCUGCAUACUAUACUACCUACUACCUCA,1.43 ± 0.11
5,GGAGACCUAUGAUAUGUUCCUAGUACCUGA,< 0.0001
6,GGUCUCGAUACUAUACAUCCUACUACCUCA,1.72 ± 0.093
7,GGUCUGGAUAGUAUACAACGUACUACCUCA,0.319 ± 0.047
8,GGUCUGGAUACCUAUACAACCUACUACCUCA,1.41 ± 0.1
9,GCUCUGGAUACUAUACAACGUACUACCACA,1.24 ± 0.093
10,GGAGACCUUUCUAUACAACGUACUACCUCA,0.113 ± 0.01
11,GGAGACCUAUGUAUACAACCUACUGACCUCA,0.0582 ± 0.013
12,CCUCUGGAUACUUUACAUCCUACUACCUCA,1.67 ± 0.11
13,GGACUGGAUACUAUACAACCUACUACCUAA,0.609 ± 0.058
14,GCUCUGGAUACUAUUCAUCCUACUACCUCA,1.42 ± 0.097
15,GCUGUGGAUAGUAUACAACCUACUACCUCA,0.599 ± 0.049
16,GGAGACGAUACAAUUCAACCUACUACCUCA,0.664 ± 0.073
17,GCUCUGGAUACUAUACAACCUACUACGACA,1.34 ± 0.11
18,GCUCUGCUAACUAUACAACCUACUACCUCA,1.68 ± 0.11
19,GGACUGGAAACUAUACAACCUACUAGCUCA,0.0121 ± 0.0032
20,GGACUGGAUACUAUACAACCUACUACUCA,0.152 ± 0.025
